Source: PubChem BioAssay AID1347070 (National Center for Advancing Translational Sciences (NCATS), 2019)
Out of some 94,000 compounds screened, about 20 (0.02%) were called active. Inconclusive results, whose numbers are uncertain, are shown with a selection of clear calls. The call rests on the fitted dose curve; in most records, active means well fitted activation curve with a large enough effect; inconclusive means small, poorly fitted or top-dose-only effect; inactive means flat fitted curve, though single readings scatter. Potencies of inconclusive entries are left out as doubtful fits.

assay: qHTS of alpha-syn Inhibitors: NCGC Sytravon Library Screen; on growth rescue (activation): 0% is about no effect; details: S. cerevisiae alpha-synuclein toxicity rescue, BacTiter-Glo growth, 24 h; growth rescue (activation): at 46.1 µM (top of the series)
How it was run: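 Growth restoration measured by BacTiter-Glo luminescence after 24 hr at 30 deg C; alpha-synuclein yeast, raffinose-pregrown to mid-log, were added at OD600=0.02 in galactose medium onto pinned compounds.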
Potency means the concentration at half of the fitted maximal effect; tags describe the fitted curve by direction and shape.

| SMILES | Potency | growth rescue (activation) |
| --- | --- | --- |
| COC(=O)c1ccc(Cl)cc1NC(=O)N1CC=C(c2c[nH]c3ccccc23)CC1 | inactive | – |
| Cc1ccc(-c2nc(S(=O)(=O)c3ccc(C)cc3)c(SCC(=O)c3ccccc3)o2)cc1 | active: 17.8 µM | – |
| CCC(C)c1ccc(O)c(NC(=S)NC(=O)c2cccs2)c1 (stereo not given) | – | inconclusive: 88.3% [activator] |
| COc1cc(NC(=O)CSc2nc3nc(C)c(Cc4ccccc4)c(C)n3n2)cc(OC)c1OC | inactive | – |
| Cc1cc(Nc2cccc(C(F)(F)F)c2)nc2ccc(NC(=O)c3cncc(Br)c3)cc12 | inactive | – |
| CC(C)C1C(=O)N(Cc2cn(Cc3ccco3)nn2)CCS(=O)(=O)N1Cc1ccc(-c2ccc(F)cc2)cc1 (stereo not given) | – | inconclusive: 33.7% [activator] |
| COC(=O)c1ccc(NC(=O)c2c(NCc3ccc(OC)c(OC)c3)sc3c2CCCC3)cc1 | inactive | – |
| Cc1ccc(Cl)cc1N(C)C(=O)c1cc2ccc3cccnc3c2[nH]1 | inconclusive [activator, single point] | – |
| Cc1cccc(OCCCCn2c(C3CC(=O)N(c4ccc(C)cc4C)C3)nc3ccccc32)c1 (stereo not given) | inconclusive [activator, single point] | – |
| CCOC(=O)C1CCCN(S(=O)(=O)c2cc(-c3cc(C)no3)ccc2C)C1 (stereo not given) | – | inconclusive: -54.8% [activator] |
| CCCOc1ccc(/C=N/NC(=O)C2CC2)c(OCCC)c1 | inactive | – |
| Cc1ccc(C(=O)OCc2cc(=O)n3nc(-c4cccs4)sc3n2)cc1 | inactive | – |
| Cc1c(Cl)cccc1NC(=O)C1CCCN(c2nnc(-n3c(C)ccc3C)s2)C1 (stereo not given) | inactive | – |
| CC(=O)c1ccc(NC(=S)Nc2ccc(N3CCOCC3)cc2)cc1 | – | inconclusive: 1150% [activator] |
| Cc1ccc(C)c(N2CCN(C(=O)c3cc4c(=O)n(Cc5cccs5)ccc4nc3C)CC2)c1 | inconclusive [activator, single point] | – |
| COc1cc(NC(=O)Cn2ccn(-c3cc(C)cc(C)c3)c(=O)c2=O)cc(OC)c1 | inactive | – |
| COC(=O)c1sccc1S(=O)(=O)N1CCN(c2ccc(C)cc2C)CC1 | inconclusive [activator, single point] | – |
| COc1ccc(C(=O)CC(Sc2ccccc2N)c2ccc(OC)cc2)cc1 (stereo not given) | – | inconclusive: 36.6% [activator] |
| O=C(CCc1ccccc1)N(Cc1cccnc1)c1nc2c(F)cccc2s1 | inconclusive [activator, partial curve] | – |
| Cc1ccc(Cl)cc1NC(=O)C(=O)NCC(c1cccnc1)N1CCc2ccccc21 (stereo not given) | inconclusive [activator, single point] | – |
| CCOc1ccc(N(C(C)C(=O)Nc2cc(Cl)ccc2OC)S(C)(=O)=O)cc1 (stereo not given) | inconclusive [activator, single point] | – |
| O=C(C1CCN(S(=O)(=O)c2ccc(Br)s2)CC1)N1CCN(c2ccccc2)CC1 | inconclusive [activator, single point] | – |
| COc1ccc(CC(=O)NCc2ccc3c(c2)CCN3C(=O)c2ccc(Cl)cc2)cc1 | inactive | – |
| CCN(CCCNC(=O)c1cc2c(Cl)nc3ccccc3c2s1)Cc1ccccc1 | inconclusive [activator, single point] | – |

| SMILES | Potency | growth rescue (activation) |
| --- | --- | --- |
| Cc1ccc(NC(=O)CN(C)S(=O)(=O)c2ccc3[nH]c4c(c3c2)CCCC4)c(Cl)c1 | inconclusive [activator, single point] | – |
| COc1cc(-c2nc(Cn3nnc(C(=O)Nc4ccc(C)cc4C)c3C)c(C)o2)cc(OC)c1OC | inactive | – |
| O=C(NCCc1ccccc1)c1ccc2c(c1)N(Cc1ccc(Cl)cc1)C(=O)c1ccccc1S2(=O)=O | – | inconclusive: 34.2% [activator] |
| Cc1ccc(N2CC(NC(=O)CCCc3ccccc3)CC2=O)cc1 (stereo not given) | inactive | – |
| CCC/C=C/c1ccc(CN2C(CC(C)C)C(=O)N(Cc3cn(CCC4OCCO4)nn3)CCS2(=O)=O)cc1 (stereo not given) | – | inconclusive: 180% [activator] |
| COCC(=O)N(C)C[C@@H]1Oc2cc(-c3ccc(F)cc3)ccc2S(=O)(=O)N([C@H](C)CO)C[C@H]1C | – | inconclusive: 44% [activator] |
| Cc1cccc(-n2cnc3cc(C(=O)NCc4ccccc4Cl)ccc32)c1 | inconclusive [activator, single point] | – |
| CCSc1nc2sc3c(c2c(=O)n1-c1ccc(C)c(Cl)c1)CCN(C(C)=O)C3 | inconclusive [activator, single point] | – |
| COc1cc(OC)cc(C(=O)Nc2cccc(-c3cn4ccsc4n3)c2)c1 | inactive | – |
| COc1cccc(C2CC(c3ccc(Br)cc3)=NN2C(=O)c2ccncc2)c1OC (stereo not given) | – | inconclusive: 30.8% [activator] |
| COC(=O)c1ccc(NS(=O)(=O)c2c(C)nc3sccn3c2=O)cc1 | inconclusive [activator, single point] | – |
| CCn1c(=O)c2cc(C(=O)N3CCN(c4cccc(OC)c4)CC3)sc2c2ccccc21 | inactive | – |
| COc1ccc(OC)c(NCc2cccn2-c2nnc(N3CCCCC3)s2)c1 | inconclusive [activator, single point] | – |
| COC(=O)/C(=C\C(=O)c1ccccc1)Nc1ccc(OC)cc1 | – | inconclusive: 85.3% [activator] |
| Oc1c(Br)cc(Cl)cc1C=Nc1ccc(N2CCOCC2)cc1 | – | inconclusive: 35.6% [activator] |
| CCc1cccc2c(-c3ccccc3)nc(SCC(=O)Nc3ccccc3OC)nc12 | inactive | – |
| Oc1ccccc1C=NNC(=S)NC1CC2C=CC1C2 (stereo not given) | – | inconclusive: 47.6% [activator] |
| CC1Cc2cc(S(=O)(=O)NCCc3ccc(Cl)cc3)ccc2N1C(=O)C1CCC1 (stereo not given) | inconclusive [activator, single point] | – |
| CCOc1cccc(NC(=O)C2CC(=O)N(C)C(=Nc3ccc(F)cc3)S2)c1 (stereo not given) | inconclusive [activator, single point] | – |
| Cc1ccc(S(=O)(=O)C(CNC(=O)Cc2ccc(Cl)cc2)c2cccs2)cc1 (stereo not given) | inconclusive [activator, single point] | – |
| O=C(c1cnc(N2CCCCC2)c2ccccc12)N1CCN(c2cccc(Cl)c2)CC1 | inconclusive [activator, single point] | – |
| Cc1oc(-c2cccc(Cl)c2)nc1CSCC(=O)NCc1ccccc1Cl | active: 20 µM | – |
| CCn1c(=O)c2sccc2n2c(CCC(=O)NCc3ccc(Cl)cc3)nnc12 | inactive | – |
| COc1cccc(C(c2sc3nc(-c4ccco4)nn3c2O)N2CCN(c3ccccc3F)CC2)c1 (stereo not given) | inconclusive [activator, single point] | – |

| SMILES | Potency | growth rescue (activation) |
| --- | --- | --- |
| CCn1c(C)c(C)c2cc(C(=O)NCc3ccc(OC)cc3OC)ccc21 | inconclusive [activator, single point] | – |
| CCOc1ccccc1NC(=O)c1c(NCc2cccs2)sc2c1CCCCC2 | inconclusive [activator, single point] | – |
| O=c1cc(CSc2ccc(Cl)cc2)nc(-c2ccccn2)[nH]1 | – | inconclusive: 111% [activator] |
| Cc1cccc(Nc2cc(C)nc3nc(Cc4ccc(Cl)cc4)nn23)c1 | inconclusive [activator, single point] | – |
| COc1ccc(-c2ccc(NS(=O)(=O)c3ccccc3Cl)cc2)nn1 | inconclusive [activator, single point] | – |
| O=C(CCn1cnc2onc(-c3ccc(F)cc3)c2c1=O)N1CCN(c2ccccc2)CC1 | inconclusive [activator, single point] | – |
| Cc1ccc(C)c(S(=O)(=O)NCCc2csc(-c3ccc(Cl)cc3)n2)c1 | inconclusive [activator, single point] | – |
| CCOC(=O)COc1ccc(CC)cc1C(=O)c1ccn2nc(-c3ccc(Cl)cc3)cc2n1 | inactive | – |
| Cc1cc(C)c(S(=O)(=O)NCc2csc(-c3ccccc3)n2)c(C)c1 | inconclusive [activator, single point] | – |
| CCC/C=C/c1ccc(CN2C(C(C)C)C(=O)N(Cc3cn(CCC4OCCCO4)nn3)CCS2(=O)=O)cc1 (stereo not given) | – | inconclusive: 37.7% [activator] |
| COc1cccc(-n2c(SCc3ccc(F)cc3)nc3c([nH]c4ccccc43)c2=O)c1 | inconclusive [activator, single point] | – |
| O=C(CN(C(=O)c1nsc(Cl)c1Cl)c1ccc(F)cc1)NC1CCCC1 | inactive | – |
| CCc1cc(-c2n[nH]c(C)c2-c2nc(C)cs2)c(O)cc1OC | – | inconclusive: 43.4% [activator] |
| CCNc1nc(-c2cc(C)n(Cc3ccco3)c2C)cs1 | inactive | – |
| CN(C)CCOCCOc1ccc(Cl)c2ccccc12 | inactive | – |
| CC(Sc1nnc(CNC(=O)c2ccco2)n1C)C(=O)Nc1nccs1 (stereo not given) | inactive | – |
| COc1ccc(C)c2sc(N3CCN(C(=O)c4ccco4)CC3)nc12 | inconclusive [activator, single point] | – |
| CSc1ccc(CCNC(=O)c2cc3cc(S(=O)(=O)N4CCCCC4)ccc3n2C)cc1 | inactive | – |
| Cc1cc(C)cc(NC(=O)N2CCN(c3cc(-c4noc(C)n4)ccc3C)CC2)c1 | inconclusive [activator, single point] | – |
| CCCOc1ccc(NC(=O)C(=O)NCCCN2CCOCC2)cc1 | inactive | – |
| CCOc1ccccc1NC(=O)C(Cc1ccccc1)NS(=O)(=O)c1ccc(Br)s1 (stereo not given) | inactive | – |
| Cc1cccc(NC(=O)C(=O)NCC(c2ccc3c(c2)OCO3)N2CCOCC2)c1C (stereo not given) | inactive | – |
